Experimental data from patent US20150330981A1 (published 2015).

Biological target: T1, HA PGC-1β (full-length mouse PGC-1β with HA tag) (mouse, UniProt Q8VHJ7 1-1014)
T1 sequence (looked up): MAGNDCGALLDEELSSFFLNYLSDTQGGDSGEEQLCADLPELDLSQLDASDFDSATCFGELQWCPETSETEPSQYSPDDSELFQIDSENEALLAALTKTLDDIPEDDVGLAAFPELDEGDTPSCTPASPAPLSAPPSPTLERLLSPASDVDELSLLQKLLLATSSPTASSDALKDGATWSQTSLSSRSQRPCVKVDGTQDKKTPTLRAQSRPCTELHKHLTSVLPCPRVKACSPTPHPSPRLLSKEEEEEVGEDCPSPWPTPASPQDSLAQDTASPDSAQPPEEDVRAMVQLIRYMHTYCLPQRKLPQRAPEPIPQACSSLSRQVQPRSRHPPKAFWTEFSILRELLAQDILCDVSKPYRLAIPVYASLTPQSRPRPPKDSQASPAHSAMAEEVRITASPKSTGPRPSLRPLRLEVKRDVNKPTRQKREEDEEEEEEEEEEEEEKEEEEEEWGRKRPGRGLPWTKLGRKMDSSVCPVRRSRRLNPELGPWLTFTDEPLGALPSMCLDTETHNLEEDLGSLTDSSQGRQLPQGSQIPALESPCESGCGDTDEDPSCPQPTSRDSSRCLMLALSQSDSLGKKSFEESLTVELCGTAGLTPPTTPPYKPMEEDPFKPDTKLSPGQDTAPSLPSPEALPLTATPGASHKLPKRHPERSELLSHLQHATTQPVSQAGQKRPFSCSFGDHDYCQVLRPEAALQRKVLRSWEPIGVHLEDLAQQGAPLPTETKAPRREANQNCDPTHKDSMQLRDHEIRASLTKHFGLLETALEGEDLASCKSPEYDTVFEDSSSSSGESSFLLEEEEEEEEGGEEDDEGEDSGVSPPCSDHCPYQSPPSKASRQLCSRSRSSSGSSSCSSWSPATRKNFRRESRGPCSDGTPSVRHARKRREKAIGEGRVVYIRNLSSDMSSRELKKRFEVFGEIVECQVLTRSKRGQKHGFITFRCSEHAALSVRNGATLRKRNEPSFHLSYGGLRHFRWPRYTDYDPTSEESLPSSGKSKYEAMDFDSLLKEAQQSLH
Assay: cell-based or functional assay

half-life of PGC-1β in cells (cycloheximide chase, Western blot): 1.6 h
B1: synoviolin with FLAG tag (SYVN1/FLAG) (enzyme, not shown: small tags and cut ends)
chain: not shown
